Out of some 310,000 compounds screened, about 14,000 (4.5%) showed an effect of 50% or more. Effects have a minus sign here. The list shows a part of the results.
target: human ether-à-go-go-related gene (hERG) potassium channel (human, UniProt Q12809); assay: primary screen, population patch clamp on CHO cells stably expressing hERG
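Also: peak tail current of the secondary pulse compared with the same well before compound.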

Sequence of human ether-à-go-go-related gene (hERG) potassium channel (Q12809 whole entry, looked up): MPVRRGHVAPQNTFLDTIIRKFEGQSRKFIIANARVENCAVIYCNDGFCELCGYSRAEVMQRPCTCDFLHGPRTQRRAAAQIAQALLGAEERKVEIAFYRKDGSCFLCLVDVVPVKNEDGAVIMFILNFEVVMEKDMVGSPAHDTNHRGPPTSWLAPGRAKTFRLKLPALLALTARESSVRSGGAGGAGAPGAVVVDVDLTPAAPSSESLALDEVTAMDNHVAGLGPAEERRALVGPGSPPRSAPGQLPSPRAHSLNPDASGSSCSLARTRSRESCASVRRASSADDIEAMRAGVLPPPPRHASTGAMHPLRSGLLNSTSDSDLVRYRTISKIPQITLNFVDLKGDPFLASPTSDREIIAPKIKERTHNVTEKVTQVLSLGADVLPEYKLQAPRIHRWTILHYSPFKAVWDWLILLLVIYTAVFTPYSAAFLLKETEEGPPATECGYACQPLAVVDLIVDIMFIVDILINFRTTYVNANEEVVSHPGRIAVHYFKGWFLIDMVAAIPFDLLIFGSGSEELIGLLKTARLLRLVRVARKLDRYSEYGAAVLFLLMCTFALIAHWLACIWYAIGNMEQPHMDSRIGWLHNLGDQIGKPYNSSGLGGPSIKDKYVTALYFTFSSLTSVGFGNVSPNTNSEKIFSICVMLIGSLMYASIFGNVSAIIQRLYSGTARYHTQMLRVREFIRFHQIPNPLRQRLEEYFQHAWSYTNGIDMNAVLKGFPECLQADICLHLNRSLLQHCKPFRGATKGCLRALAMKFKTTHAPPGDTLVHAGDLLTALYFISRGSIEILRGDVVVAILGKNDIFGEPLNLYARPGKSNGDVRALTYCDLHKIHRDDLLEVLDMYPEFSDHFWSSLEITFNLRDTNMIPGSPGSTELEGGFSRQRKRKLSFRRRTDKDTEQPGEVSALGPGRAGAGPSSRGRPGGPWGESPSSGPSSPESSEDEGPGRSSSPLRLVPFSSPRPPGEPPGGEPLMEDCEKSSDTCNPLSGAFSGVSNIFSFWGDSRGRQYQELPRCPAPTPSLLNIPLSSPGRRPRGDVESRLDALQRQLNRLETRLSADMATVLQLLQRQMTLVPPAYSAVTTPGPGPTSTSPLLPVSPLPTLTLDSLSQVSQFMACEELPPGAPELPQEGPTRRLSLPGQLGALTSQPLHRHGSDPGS

Row | Compound | hERG current change (%, negative = inhibition) at 10uM
1 | COc1ccc(/C=C/C(=O)NC(=S)N2CCN(C)CC2)cc1 | -9.1%
2 | O=C(O)COc1ccc(F)cc1Br | 5.42%
3 | Cc1cc2oc(=O)cc(CN3CCC(C)CC3)c2cc1Cl | 5.75%
4 | O=C(OCc1cnc(Cl)s1)c1cccc(Cl)c1Cl | 8.04%
5 | CC(C)CC(C)NC(=O)c1ccc(C(F)(F)F)cc1 (stereo not drawn) | -5.96%
6 | COC(=O)c1ccc(OCC2c3cc(OC)c(OC)cc3CCN2C(C)=O)cc1 (stereo not drawn) | 8.8%
7 | CCc1ccc(-c2ccc(C(=O)O)c(C)n2)cc1 | 2.68%
8 | COc1ccccc1CNC(=O)c1ccc(S(=O)(=O)N2CCCC2)cc1 | -6.43%
9 | COc1ccccc1/C=C/C=C(\C#N)C(=O)NC(C)c1ccccc1 (stereo not drawn) | 5.31%
10 | O=c1[nH]nc(CNc2ccc(O)cc2)c2ccccc12 | -6.61%
11 | O=C(CCSCc1ccc(Cl)cc1)NC1CCCC1 | -24.8%
12 | Cc1cccc(NC(=O)Cc2c(F)cccc2Cl)n1 | 5.01%
13 | CCN=c1sc(C(=O)OC)cc(=O)n1CC | 13.1%
14 | O=C1CCc2cc(S(=O)(=O)NC(C(=O)N3CCN(c4ccccn4)CC3)c3ccccc3)ccc2N1 (stereo not drawn) | -20.4%
15 | CC(C)C(=O)Nc1oc(-c2ccccc2)cc1C#N | 15.2%
16 | CCOc1ccc(S(=O)(=O)n2cc(F)c(=O)[nH]c2=O)cc1 | 22.7%
17 | CCOc1ccccc1N(CC(=O)Nc1ccccc1F)S(=O)(=O)c1ccccc1 | -2.97%
18 | O=C1Nc2ccccc2C(O)(C(=O)NCc2ccco2)N1c1ccccc1 (stereo not drawn) | -5.07%
19 | CCC(C)C(NC(N)=O)C(=O)Nc1ccc(C)c(Cl)c1 (stereo not drawn) | 10.9%
20 | O=C(O)CCN=C1CCc2ccccc2N1 | 20.2%
21 | Cc1nc2cc(-c3ccc(F)cc3)[nH]n2c(=O)c1C | -2.48%
22 | Cc1cccc(NS(=O)(=O)c2ccc(NS(=O)(=O)c3cccs3)cc2)c1 | 2.35%
23 | O=C(Nc1ccccc1C(=O)N1CCOCC1)c1cc2ccccc2o1 | 15%
24 | CCOc1ccc(CC(=O)NNC(=S)Nc2ccc(OC)c(OC)c2)cc1 | 18.6%

Row | Compound | hERG current change (%, negative = inhibition) at 10uM
25 | Nc1nc(-c2cc(-c3ccccc3)no2)cs1 | 9.7%
26 | Cc1ccc(OCC(=O)NC(=S)Nc2ccc3c4c(cccc24)CC3)cc1 | 14.6%
27 | COc1ccc(CNC(=O)Cn2ccc(N)nc2=O)cc1 | 13.6%
28 | O=c1cc(-c2ccncc2)oc2c1ccc1ccccc12 | -4.57%
29 | O=C(Cc1ccc(Cl)c(Cl)c1)Nc1cccnc1 | -6.99%
30 | CCOc1ccc(N=C2NC(=O)/C(=C/C(=O)OC)S2)cc1 | 13.1%
31 | CCc1ccc(NC(=O)COC(=O)CN2C(=O)COc3ccccc32)cc1 | -3.56%
32 | COC(=O)C1=C(C)N(c2cccc(C(C)=O)c2)C(=O)C1 | 7.45%
33 | CC(C)OC(=O)CSc1nnc(C2CCCCC2)n1N | 13.4%
34 | O=C(CCCNS(=O)(=O)c1cccc2nsnc12)NCc1ccc(Cl)cc1 | -37.9%
35 | CCC(=O)Nc1ccc2c(c1)nc(CCN1CCC(C)CC1)n2C | 1.48%
36 | CCN(CC)S(=O)(=O)c1ccc(NC2c3ccccc3C(=O)N2CCN2CCOCC2)cc1 (stereo not drawn) | -37%
37 | Cc1cc2c(cc1S(=O)(=O)CCC(=O)NCCc1ccccc1)OCC(=O)N2 | -44.6%
38 | COc1ccc(/C=N/NC(=O)CNc2c(Br)cc(C)cc2Br)c(C(=O)O)c1OC | 4.18%
39 | COCCCn1c(SCc2ccccc2)nc2cc(OC)c(OC)cc2c1=N | -0.437%
40 | Nc1nc(CSC(=S)N2CCOCC2)nc(Nc2ccccc2)n1 | 7.38%
41 | C/C(=N\NC(=O)c1cc(Br)ccc1O)c1ccccn1 | 15.4%
42 | CC(C)[C@H](NC(=O)NCCc1ccc(F)cc1)C(=O)O | 3.8%
43 | COc1cccc(C(=O)Nc2cccc(OC(C)=O)c2)c1 | 2.26%
44 | COc1ccc(C(=O)NCC(=O)OCC(=O)Nc2cc([N+](=O)[O-])ccc2F)cc1 | -23.4%
45 | Cc1ccc(C(=O)CSc2nnc(C)s2)cc1 | -7.21%
46 | COc1ccc(N=Cc2ccc[nH]2)cc1 | 16%
47 | O=C(O)CCc1nc2ccccc2c(=O)[nH]1 | 38.7%
48 | CCCNC(=O)C(Cc1ccc(I)cc1)NC(=O)C1CC1 (stereo not drawn) | 0.47%

Row | Compound | hERG current change (%, negative = inhibition) at 10uM
49 | CC1CC(c2ccccc2)NS(=O)(=O)O1 (stereo not drawn) | 1.46%
50 | COCC(C)NC(=O)c1cccc([N+](=O)[O-])c1 (stereo not drawn) | 15%
51 | Cc1ccc(N2CC(C(=O)OCC(=O)C(C)(C)C)CC2=O)cc1 (stereo not drawn) | -4.69%
52 | [O-][n+]1onc2c1CCC1N(O)CCC21O (stereo not drawn) | 3.18%
53 | CCO[C@@H]1OC(C(=O)N2CCCCCCC2)=C[C@H](c2cn(C(C)=O)c3ccccc23)[C@H]1CCCO | -41.1%
54 | COc1ccc(N/C(=N/c2nc(C)cc(C)n2)NC(=O)c2ccccc2)cc1 | 14.5%
55 | CCOc1ccc(C(=O)NC(C(=O)NCc2ccccn2)C(C)C)cc1 (stereo not drawn) | 16.8%
56 | S=c1[nH]nc(COc2ccccc2)n1Cc1ccccc1 | 16%
57 | CC(Cl)C(=O)Nc1ncc(C(F)(F)F)cc1Cl (stereo not drawn) | -6.46%
58 | O=C1CC(c2ccco2)=Nc2ccccc2N1 | 3.5%
59 | Cc1cc(C)n(/N=C\c2c(O)ccc3ccccc23)c(=O)c1C(N)=O | -1.55%
60 | CS(=O)(=O)c1ccc2nnn(OCC(=O)Nc3cccc(C#N)c3)c2c1 | -5.29%
61 | CN(Cc1ccccc1F)C(=O)c1ccc(Oc2ccccc2)cc1 | -23.3%
62 | O=C(c1ccc(CS(=O)c2cccc(Cl)c2)o1)N1CCN(C2CCCCC2)CC1 (stereo not drawn) | -29.3%
63 | O=C(O)c1ccccc1CSc1nc2ccccc2o1 | 18.5%
64 | COc1ccc(C(=O)Nc2cccc(C(=O)NCc3ccco3)c2)cc1 | -21%
65 | O=C(NCCNc1ccc([N+](=O)[O-])cc1)c1ccco1 | -23.7%
66 | O=c1c2ccccc2[nH]c(=S)n1-c1cccc(S(=O)(=O)N2CCCC2)c1 | 20.5%
67 | CC(=O)c1ccc(NC(=S)Nc2ccc3cn[nH]c3c2)cc1 | 8.92%
68 | COc1cc(CC(=O)Nc2nccs2)cc(OC)c1OC | -9.76%
69 | Cc1ccc(S(=O)(=O)N2CCN(Cc3cc(C(C)C)ccc3O)CC2)cc1 | 6.56%
70 | Cl.O=C(CCN1CCCCCC1)Nc1ccc(F)cc1 | -42.8%
71 | Cl.O=C(CSc1nc(O)cc(=O)n1-c1ccccc1)Nc1ccccn1 | 27.8%
72 | Cl.OC(CN1CCOCC1)CN(c1ccccc1)c1ccccc1 (stereo not drawn) | -28.5%

Row | Compound | hERG current change (%, negative = inhibition) at 10uM
73 | CCN(C(=O)COC(=O)Cc1c(F)cccc1Cl)c1c(N)n(Cc2ccccc2)c(=O)[nH]c1=O | 11.3%
74 | CCn1c(SCC(=O)Nc2ccccc2)nnc1-c1cccs1 | -70.8%
75 | COc1ccc(NC(=O)CC2Oc3ccccc3NC2=O)cc1 (stereo not drawn) | 9.76%
76 | CCOP(=O)(O)c1ccccc1OCCOc1ccccc1P(=O)(O)OCC | 9.14%
77 | CC(C)Cn1c(=O)c(C(=O)Nc2ccncc2)c(O)c2ccccc21 | -6.19%
78 | COc1ccc(NS(=O)(=O)c2cc(NC(=O)c3ccc(F)cc3)ccc2OC)cc1 | 6.37%
79 | C/C(=N\NC(=O)CSc1nc2ccccc2s1)c1cccnc1 | -7.25%
80 | COc1ccc(Cc2nnc(SCC(=O)Nc3ncc(C)s3)o2)cc1 | -8.49%
81 | COC(=O)c1ccc(CSc2nccn2C)cc1 | -5.16%
82 | CCOc1ccc2c(=O)c(-c3ccc4c(c3)OCCCO4)c(C)oc2c1 | 1.73%
83 | CCOc1cc(/C=N/n2cnnc2)ccc1O | 7.61%
84 | CCOC(=O)c1cc(-c2ccccc2)n(CCC(=O)N2CCN(c3ccccn3)CC2)c1C | -40.5%
85 | Cc1ccc2[nH]c(=O)c(C(c3nnnn3C3CCCC3)N(Cc3cccnc3)Cc3ccco3)cc2c1 (stereo not drawn) | -5.71%
86 | O=C(Cc1ccccc1)Nc1ccccc1N1CCOCC1 | -6.81%
87 | O=C(Cn1cc(S(=O)(=O)Cc2ccccc2F)c2ccccc21)N1CCOCC1 | -4.32%
88 | Cc1c(CN2CCC(n3nccc3NC(=O)C3CC3)CC2)[nH]c2ccccc12 | -61%
89 | CCOC(=O)c1cnc(-n2nc(C)cc2C)nc1NC(C)c1ccccc1 (stereo not drawn) | 3.15%
90 | COc1ccc(C(C)=O)cc1CSc1nc2ccccc2c(=O)n1-c1ccccc1C | 12.2%
91 | Cc1c(C(c2ccc(O)cc2)c2c(O)c3ccccc3oc2=O)c(=O)n(-c2ccccc2)n1C (stereo not drawn) | 7.46%
92 | O=C1c2cccc(OCC(=O)N3CCCc4ccccc43)c2CCN1Cc1ccc(F)cc1 | -34%
93 | N#CCCn1cc(C(=O)O)c(-c2ccc3ccccc3c2)n1 | 16%
